# Reference: the supplement of paper PMC8728848
# The other results are listed elsewhere or left out.
# Legend:
# Test in all cases: glycan array binding signal (z-score within array); higher = stronger binding
# Conditions in all cases: glycan notation: IUPAC condensed, linker removed
# Fuc(a1-2)Gal = target: Fuc(a1-2)Gal
# Method in brief: (§1)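 Arrays were curated from the Consortium for Functional Glycomics database, 3228 in total, and kept only where the protein sequence was available. Binding is expressed as a within-array Z-score. This score was averaged across arrays of the same protein sequence at different concentrations or buffers and across linkers, and negative values can be read as non-binding.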
# Fuc(a1-2)Gal(b1-3)GalNAc = target: Fuc(a1-2)Gal(b1-3)GalNAc
# Method in brief: as §1
# [1] = target: Fuc(a1-2)Gal(b1-3)GalNAc(a1-3)[Fuc(a1-2)]Gal(b1-4)Glc
# Method in brief: as §1
# [2] = target: Fuc(a1-2)Gal(b1-3)GalNAc(a1-3)[Fuc(a1-2)]Gal(b1-4)GlcNAc
# Method in brief: as §1
# [3] = target: Fuc(a1-2)Gal(b1-3)GalNAc(b1-3)Gal
# Method in brief: as §1
# [4] = target: Fuc(a1-2)Gal(b1-3)GalNAc(b1-3)Gal(a1-4)Gal(b1-4)Glc
# Method in brief: as §1
# [5] = target: Fuc(a1-2)Gal(b1-3)GalNAc(b1-4)[Neu5Ac(a2-3)]Gal(b1-4)Glc
# Method in brief: as §1
# Fuc(a1-2)Gal(b1-3)GlcNAc = target: Fuc(a1-2)Gal(b1-3)GlcNAc
# Method in brief: as §1
# [6] = target: Fuc(a1-2)Gal(b1-3)GlcNAc(b1-2)Man(a1-3)[Fuc(a1-2)Gal(b1-3)GlcNAc(b1-2)Man(a1-6)]Man(b1-4)GlcNAc(b1-4)GlcNAc
# Method in brief: as §1
# [7] = target: Fuc(a1-2)Gal(b1-3)GlcNAc(b1-2)Man(a1-3)[Fuc(a1-2)Gal(b1-3)GlcNAc(b1-2)Man(a1-6)]Man(b1-4)GlcNAc(b1-4)[Fuc(a1-6)]GlcNAc
# Method in brief: as §1
# [8] = target: Fuc(a1-2)Gal(b1-3)GlcNAc(b1-3)Gal(b1-4)Glc
# Method in brief: as §1
# [9] = target: Fuc(a1-2)Gal(b1-3)GlcNAc(b1-3)GalNAc
# Method in brief: as §1
# [10] = target: Fuc(a1-2)Gal(b1-3)GlcNAc(b1-3)[Fuc(a1-2)Gal(b1-3)GlcNAc(b1-6)]GalNAc
# Method in brief: as §1
# [11] = target: Fuc(a1-2)Gal(b1-3)GlcNAc(b1-3)[Gal(b1-4)GlcNAc(b1-6)]Gal(b1-4)Glc
# Method in brief: as §1
# [12] = target: Fuc(a1-2)Gal(b1-3)GlcNAc(b1-3)[Neu5Ac(a2-6)Gal(b1-4)GlcNAc(b1-6)]Gal(b1-4)Glc
# Method in brief: as §1
# [13] = target: Fuc(a1-2)Gal(b1-3)GlcNAc6S
# Method in brief: as §1
# [14] = target: Fuc(a1-2)Gal(b1-3)[Fuc(a1-4)]GlcNAc
# Method in brief: as §1
# [15] = target: Fuc(a1-2)Gal(b1-3)[Fuc(a1-4)]GlcNAc(b1-2)Man(a1-3)[Fuc(a1-2)Gal(b1-3)[Fuc(a1-4)]GlcNAc(b1-2)Man(a1-3)]Man(b1-4)GlcNAc(b1-4)GlcNAc
# Method in brief: as §1
# [16] = target: Fuc(a1-2)Gal(b1-3)[Fuc(a1-4)]GlcNAc(b1-2)Man(a1-3)[Fuc(a1-2)Gal(b1-3)[Fuc(a1-4)]GlcNAc(b1-2)Man(a1-6)]Man(b1-4)GlcNAc(b1-4)[Fuc(a1-6)]GlcNAc(b1-4)[Fuc(a1-6)]GlcNAc
# Method in brief: as §1
# [17] = target: Fuc(a1-2)Gal(b1-3)[Fuc(a1-4)]GlcNAc(b1-3)[Fuc(a1-3)[Gal(b1-4)]GlcNAc(b1-6)]Gal(b1-4)Glc
# Method in brief: as §1
# [18] = target: Fuc(a1-2)Gal(b1-3)[Fuc(a1-4)]GlcNAc(b1-3)[Gal(b1-4)GlcNAc(b1-6)]Gal(b1-4)Glc
# Method in brief: as §1
# Fuc(a1-2)Gal(b1-4)Glc = target: Fuc(a1-2)Gal(b1-4)Glc
# Method in brief: as §1
# Fuc(a1-2)Gal(b1-4)Glc6S = target: Fuc(a1-2)Gal(b1-4)Glc6S
# Method in brief: as §1
# Fuc(a1-2)Gal(b1-4)GlcNAc = target: Fuc(a1-2)Gal(b1-4)GlcNAc
# Method in brief: as §1
# [19] = target: Fuc(a1-2)Gal(b1-4)GlcNAc(b1-2)Man
# Method in brief: as §1
# [20] = target: Fuc(a1-2)Gal(b1-4)GlcNAc(b1-2)Man(a1-3)[Fuc(a1-2)Gal(b1-4)GlcNAc(b1-2)Man(a1-6)]Man(b1-4)GlcNAc(b1-4)GlcNAc
# Method in brief: as §1
# [21] = target: Fuc(a1-2)Gal(b1-4)GlcNAc(b1-2)Man(a1-3)[Fuc(a1-2)Gal(b1-4)GlcNAc(b1-2)Man(a1-6)]Man(b1-4)GlcNAc(b1-4)[Fuc(a1-6)]GlcNAc
# Method in brief: as §1
# [22] = target: Fuc(a1-2)Gal(b1-4)GlcNAc(b1-2)[Fuc(a1-2)Gal(b1-4)GlcNAc(b1-4)]Man(a1-3)[Fuc(a1-2)Gal(b1-4)GlcNAc(b1-2)Man(a1-6)]Man(b1-4)GlcNAc(b1-4)GlcNAc
# Method in brief: as §1
# [23] = target: Fuc(a1-2)Gal(b1-4)GlcNAc(b1-3)Gal(b1-4)GlcNAc
# Method in brief: as §1
# [24] = target: Fuc(a1-2)Gal(b1-4)GlcNAc(b1-3)Gal(b1-4)GlcNAc(b1-2)Man(a1-3)[Fuc(a1-2)Gal(b1-4)GlcNAc(b1-3)Gal(b1-4)GlcNAc(b1-2)Man(a1-6)]Man(b1-4)GlcNAc(b1-4)GlcNAc
# Method in brief: as §1
# [25] = target: Fuc(a1-2)Gal(b1-4)GlcNAc(b1-3)Gal(b1-4)GlcNAc(b1-3)Gal(b1-4)GlcNAc
# Method in brief: as §1
# [26] = target: Fuc(a1-2)Gal(b1-4)GlcNAc(b1-3)GalNAc
# Method in brief: as §1
# [27] = target: Fuc(a1-2)Gal(b1-4)GlcNAc(b1-3)[Fuc(a1-2)Gal(b1-4)GlcNAc(b1-6)]GalNAc
# Method in brief: as §1
# [28] = target: Fuc(a1-2)Gal(b1-4)GlcNAc(b1-3)[Fuc(a1-3)[Gal(b1-4)]GlcNAc(b1-6)]Gal(b1-4)Glc
# Method in brief: as §1
# [29] = target: Fuc(a1-2)Gal(b1-4)GlcNAc(b1-6)GalNAc
# Method in brief: as §1
# [30] = target: Fuc(a1-2)Gal(b1-4)GlcNAc6S
# Method in brief: as §1
# [31] = target: Fuc(a1-2)Gal(b1-4)[Fuc(a1-3)]GlcNAc
# Method in brief: as §1
# [32] = target: Fuc(a1-2)Gal(b1-4)[Fuc(a1-3)]GlcNAc(b1-2)Man(a1-3)[Fuc(a1-2)Gal(b1-4)[Fuc(a1-3)]GlcNAc(b1-2)Man(a1-6)]Man(b1-4)GlcNAc(b1-4)[Fuc(a1-6)]GlcNAc
# Method in brief: as §1
# [33] = target: Fuc(a1-2)Gal(b1-4)[Fuc(a1-3)]GlcNAc(b1-2)[Fuc(a1-2)Gal(b1-4)[Fuc(a1-3)]GlcNAc(b1-4)]Man(a1-3)[Fuc(a1-2)Gal(b1-4)[Fuc(a1-3)]GlcNAc(b1-2)Man(a1-6)]Man(b1-4)GlcNAc(b1-4)GlcNAc
# Method in brief: as §1
# [34] = target: Fuc(a1-2)Gal(b1-4)[Fuc(a1-3)]GlcNAc(b1-3)Gal(b1-4)[Fuc(a1-3)]GlcNAc
# Method in brief: as §1
# [35] = target: Fuc(a1-2)Gal(b1-4)[Fuc(a1-3)]GlcNAc(b1-3)Gal(b1-4)[Fuc(a1-3)]GlcNAc(b1-3)Gal(b1-4)[Fuc(a1-3)]GlcNAc
# Method in brief: as §1
# [36] = target: Fuc(a1-2)Gal(b1-4)[Fuc(a1-3)]GlcNAc(b1-3)GalNAc
# Method in brief: as §1
# [37] = target: Fuc(a1-2)Gal(b1-4)[Fuc(a1-3)]GlcNAc(b1-3)[Neu5Ac(a2-6)Gal(b1-4)GlcNAc(b1-6)]Gal(b1-4)Glc
# Method in brief: as §1
# [38] = target: Fuc(a1-2)Gal3S(b1-4)GlcNAc
# Method in brief: as §1
# [39] = target: Fuc(a1-2)Gal6S(b1-3)GlcNAc
# Method in brief: as §1
binder,measurement,setting,value
PX14343H-pdi-506-26-506 (Parabacteroides distasonis) (protein) QPTGTMTTDSKLTSKESALALTNSAYLKNTVFNKMTPGWGCNTILLLEYMTGKATSENSQSNYKDFQDLLVSDRSLYIEDWWQDCYAGIANCNLALQKLGEFENLDASLVNGYMAEVKFMRALYYFYLVRIFGDVPKITTVQSELGELQVSRAPVKEIYDEIIIPDLLEAEQSDLAFSDHTGRVSMGAVKALLADVYLTYAGYPLQGGKSYYAESAKRSLEVIKSNEYTLFTDYESLRLPSQNNKGEFIYQVQFSLNKRHNESVRIFLPSRSGISAYDLEYGSLIPTKEFVESFEKGDKRTEEKQYFFTNYKGHPSKFSPGAAELEFMDLNGYYIYKFFDQVAVDNTAKSDLNWSVYRYTDVLLMYAEAQVNADGTPNQQSIDIVNQIRGRAGLAPFKQTNASAFLEEVWDQRYFDLCYENKMWFDMLRTRKIRDDKSGEYVDFIGYKTNWGKVYTETQLLFPIPLSERQANPNLTQNQGY,glycan array binding signal (z-score),Fuc(a1-2)Gal,-0.393
same,glycan array binding signal (z-score),Fuc(a1-2)Gal(b1-3)GalNAc,-0.509
same,glycan array binding signal (z-score),[1],-0.41
same,glycan array binding signal (z-score),[2],-0.451
same,glycan array binding signal (z-score),[3],-0.373
same,glycan array binding signal (z-score),[4],-0.355
same,glycan array binding signal (z-score),[5],-0.216
same,glycan array binding signal (z-score),Fuc(a1-2)Gal(b1-3)GlcNAc,-0.171
same,glycan array binding signal (z-score),[6],1.18
same,glycan array binding signal (z-score),[7],-0.417
same,glycan array binding signal (z-score),[8],-0.38
same,glycan array binding signal (z-score),[9],-0.507
same,glycan array binding signal (z-score),[10],-0.337
same,glycan array binding signal (z-score),[11],-0.26
same,glycan array binding signal (z-score),[12],-0.402
same,glycan array binding signal (z-score),[13],-0.364
same,glycan array binding signal (z-score),[14],-0.374
same,glycan array binding signal (z-score),[15],-0.174
same,glycan array binding signal (z-score),[16],-0.358
same,glycan array binding signal (z-score),[17],-0.346
same,glycan array binding signal (z-score),[18],-0.231
same,glycan array binding signal (z-score),Fuc(a1-2)Gal(b1-4)Glc,-0.4
same,glycan array binding signal (z-score),Fuc(a1-2)Gal(b1-4)Glc6S,-0.531
same,glycan array binding signal (z-score),Fuc(a1-2)Gal(b1-4)GlcNAc,-0.482
same,glycan array binding signal (z-score),[19],-0.325
same,glycan array binding signal (z-score),[20],3.11
same,glycan array binding signal (z-score),[21],-0.315
same,glycan array binding signal (z-score),[22],-0.33
same,glycan array binding signal (z-score),[23],-0.509
same,glycan array binding signal (z-score),[24],-0.257
same,glycan array binding signal (z-score),[25],-0.215
same,glycan array binding signal (z-score),[26],-0.373
same,glycan array binding signal (z-score),[27],-0.493
same,glycan array binding signal (z-score),[28],-0.332
same,glycan array binding signal (z-score),[29],-0.164
same,glycan array binding signal (z-score),[30],-0.195
same,glycan array binding signal (z-score),[31],-0.418
same,glycan array binding signal (z-score),[32],0.061
same,glycan array binding signal (z-score),[33],-0.338
same,glycan array binding signal (z-score),[34],-0.424
same,glycan array binding signal (z-score),[35],0.059
same,glycan array binding signal (z-score),[36],1.89
same,glycan array binding signal (z-score),[37],-0.392
same,glycan array binding signal (z-score),[38],-0.286
same,glycan array binding signal (z-score),[39],-0.353
